In publication PMC12136788:
The list shows a part of the results.

T1: UNK ZnF1-3 (human, UniProt Q9C0B0 31-174)
T1 sequence: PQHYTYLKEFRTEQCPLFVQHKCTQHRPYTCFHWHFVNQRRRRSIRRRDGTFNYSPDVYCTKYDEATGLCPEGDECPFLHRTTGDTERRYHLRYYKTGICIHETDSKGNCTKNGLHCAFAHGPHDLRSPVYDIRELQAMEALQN

B1: chr7:56130949:56130950:+_ENSG00000146731_ENST00000540286|hu_hu|motif|central (ssRNA)
RNA: GGGAGUUCUACAGUCCGACGAUCUCACUGGAUAAAAGACCUGCUUUAUGUGUAUACACUUCAGUGCAAUUUUUAAAAAUACGGUAAUUUCAGAACUUCCAAAUUUCAACAGAUGCCAGUGUUCUCUCCUUUUUUCAUAUGGGACAACAGAGGAUUGAGCAUCA
B2: 37433538_37433658_8137_3pUTR_ENSMUSG00000026915_ENSMUST00000028279|mouse|control|control (ssRNA)
RNA: GGGAGUUCUACAGUCCGACGAUCCAAGGUACAAGAACUCCUCAAAGAAAAUGAGUCAACAGCAUCCUAAGCAUGCUUCCUAUAAUAACUUGUUCUUUACCAACAAACACACAAGCCUUGAAAACUUGAUUCUGGCUGUUGUAGCAACAGAGGAUUGAGCAUCA
B3: chr1:60041781:60041782:+_ENSMUSG00000041040_ENSMUST00000036540|mus_hu|mus_mus_mus_hu_False|58_78 (ssRNA)
RNA: GGGAGUUCUACAGUCCGACGAUCAAGUUUACAAUAGUAAAGUAAAUGCAGUAGUGGAAUGGCAAGUUUUAUUUUCCUUCCUAAAAGAAAAUCUUUAUAACCCAGUCCUAGUCUUGGACAUAGUGAAAGCUAUAAAUUCUGACUCAACAGAGGAUUGAGCAUCA
B4: chr13:42873578:42873579:+_ENSG00000023516_ENST00000025301|hu_hu|FALSE|FALSE (ssRNA)
RNA: GGGAGUUCUACAGUCCGACGAUCUUUAGCCAAUGACUUCUGCUGUCCAGAGCUAAUGAGAAUCUUUAAAUCAUGGGUUUCUAAAUGAUGACCAGUAACCGUCUGGGAAGCAGCAUCACACUGGCUCCUUAGCACAGUAAUGUUCAACAGAGGAUUGAGCAUCA
B5: chr7:135612270:135612271:-_ENSG00000105887_ENST00000393085|hu_mus|hu_hu_hu_mus_False|18_88 (ssRNA)
RNA: GGGAGUUCUACAGUCCGACGAUCGUUUUUUUCUGAGAUGUUAAAUAUUCAGUGGAGGGAAAACAAAACUUAACCUUUUAUUAAUGCGUGUUGUACCAAAAGCAGACAUUUUAGCUUGCUUCCUUUAAAAAUAUUAACAUUAAGCAACAGAGGAUUGAGCAUCA
B6: chr21:34922442:34922443:+_ENSG00000159140_ENST00000381679|hu_hu|motif|central (ssRNA)
RNA: GGGAGUUCUACAGUCCGACGAUCCUCAGUAGGUGUCUCUGAUGAUACCACAAGGGUUUCUGAAGGCUCUAACACUUUUGCGGCUGGGGGCUCUACCAACAUGAUCUUUGAUGGCUCUGGAGAUGUGCUCUCCACAGAUUUCAGCAACAGAGGAUUGAGCAUCA
B7: chr11:87793471:87793472:-_ENSMUSG00000020483_ENSMUST00000020775|mus_mus|mus_mus_mus_hu_False|48_48 (ssRNA)
RNA: GGGAGUUCUACAGUCCGACGAUCUGGACUUGAAAAUAAAAGAAUAAGCUGGAUCCCCCACCCCCCCACAUUGUCAACCCUACACGAGUUCUGAAUGGGCGACUCAUGAAAAUCAGCAGCUCAAACGGCAAUGACCACCCCACCCAACAGAGGAUUGAGCAUCA
B8: 104370750_104373640_372_CDS_ENSG00000139372_ENST00000392872|human|control|control (ssRNA)
RNA: GGGAGUUCUACAGUCCGACGAUCUCUGGGUUUUCUUUUUCUUCCUUUUGGAGCCUCUUGCACUGGUUCCUGAGCAGGAGCUGGGGCUGGAACUUCUUCUGGCAUUUGCUGUUCAUUCACAACUGCCAUAUUAGGAGCUUCAGCCAACAGAGGAUUGAGCAUCA
B9: chr2:217001844:217001845:+_ENSG00000079246_ENST00000392132|hu_hu|hu_hu_hu_mus_False|18_98 (ssRNA)
RNA: GGGAGUUCUACAGUCCGACGAUCACCAACUUGAGGAUUAGCUCUUUUGUCAUAAGCAUAUCGGACGAUGGCGACCAUGUUUAACUCAUCCAAAGCAUGAACGAGAGAGGAAAGGGCAACUGCAGCUGCCUCAUCAUCCUUUGCCAACAGAGGAUUGAGCAUCA
B10: 110440431_110441028_1743_CDS_ENSG00000134987_ENST00000506538|human|control|control (ssRNA)
RNA: GGGAGUUCUACAGUCCGACGAUCUACCGUGGAAAAUGACUGAAGAGUUCCAUCUUGACUUGCACUUAGAAUCUGCUGUCCAUUCUGUCCAUAAUAUCUGAUAUUGGUAAGAGGAGCACUAUGACCCAUUCUGAAUCUCAAAAGCAACAGAGGAUUGAGCAUCA
B11: chr8:97153689:97153690:+_ENSMUSG00000050079_ENSMUST00000060389|mus_hu|FALSE|FALSE (ssRNA)
RNA: GGGAGUUCUACAGUCCGACGAUCAUCUAGUAACAAUGUUAUAACAGCUGGUCCCAGUGGAUCUUCCAGUGGAAUAACUCUAAUUAAAGACUGGACAACAUCCAACCAUCCUUCAUCUGUUUCUGCCAUUUCGUGUAAUGUUAUCAACAGAGGAUUGAGCAUCA
B12: chr4:17845017:17845018:+_ENSG00000109805_ENST00000514176|hu_mus|hu_hu_hu_mus_False|8_78 (ssRNA)
RNA: GGGAGUUCUACAGUCCGACGAUCGCUCUCUUAACUUGUAUCUUCAUUAAGGAACUCGCAAGGUUAAAGUUUACUUUUCUGUAGCGCAGCUGUUUUGGCUCGUCUGGGUAAUCUCAUCUUCAUUUCUAUUCUGGUUCCAUGAUCCAACAGAGGAUUGAGCAUCA
B13: chr7:90019490:90019491:+_ENSMUSG00000057706_ENSMUST00000082237|mus_mus|motif|central (ssRNA)
RNA: GGGAGUUCUACAGUCCGACGAUCUCCGUCACAAUCGUGUGAUUAUUAAAAUAAUACAGUGUUCUUUGCCAUAAGGCCAUACGGAAAAUAAAAAGAUUUAACCCAGCUACAAAAAAGUUCACUGAACUUAAAUUAAAAUACUUGCAACAGAGGAUUGAGCAUCA
B14: 16802499_16805016_666_CDS_ENSMUSG00000024304_ENSMUST00000115850|mouse|control|control (ssRNA)
RNA: GGGAGUUCUACAGUCCGACGAUCAUCAUUCAUGUCAAUAACAUUGAUGACAAUGUCAAUGGGGUUCUCCACUUGAUUGCCAUUGAUGUCCACUGCAUGUGCUCUCAAGUGAAACCGGGCUAUCAGCUCUCGAUCCAGAGGCUUCAACAGAGGAUUGAGCAUCA
B15: chr19:47610742:47610743:-_ENSMUSG00000042694_ENSMUST00000049369|mus_mus|FALSE|FALSE (ssRNA)
RNA: GGGAGUUCUACAGUCCGACGAUCUGGCACUUGUUGGGACUCCUUCAUCUCCAGGAUAUCCUUGAUGUAGAGUUUUGCAAAGGCUAGAAACACAGGAUCCAGACCCCAAAAGAGGGGCGGGAUCUCCUCUUCCCUUGGACUGGACAACAGAGGAUUGAGCAUCA
B16: chr14:66974463:66974464:+_ENSMUSG00000022044_ENSMUST00000074523|mus_hu|mus_mus_mus_hu_False|38_58 (ssRNA)
RNA: GGGAGUUCUACAGUCCGACGAUCUUGUAGGACGACUUAUUCAGGGGAUCGGCCAGGAAGCAGGAGCAGAACAAGGACACUAGUGGGAGCUCCUUCAUCUUCUCCUUGUAGGCAGCAAGGGUCAUGUUUCUGGGAUCUGGUGGCCAACAGAGGAUUGAGCAUCA
B17: chr11:77336104:77336105:-_ENSG00000074201_ENST00000525064|hu_hu|FALSE|FALSE (ssRNA)
RNA: GGGAGUUCUACAGUCCGACGAUCUUCGCACAUUGCAGUGAACAUUGCCUCCAACGCUGAUUUAUCACUAGGCACAAAUCUAAAUUCAGUAAUAGGUUCAACAUCAUCAUCACUGUCUUCCUCUUCUUCAUCAGCAACAGGUUCCAACAGAGGAUUGAGCAUCA
B18: chr8:28385162:28385163:+_ENSG00000104290_ENST00000537916|hu_hu|FALSE|FALSE (ssRNA)
RNA: GGGAGUUCUACAGUCCGACGAUCGUGAAACAGCAAUGCUUUCUUCUCAAUAGCUUCACUACCCCACUUUGGCACAGCUGCUAAAAACCAUGUGAUGGUAAGAAUUACCCACCAUACACUGCCAGCCAUAGUAAAAAAAUAGAGCAACAGAGGAUUGAGCAUCA
B19: chr1:231488893:231488894:+_ENSG00000010072_ENST00000295050|hu_mus|motif|central (ssRNA)
RNA: GGGAGUUCUACAGUCCGACGAUCGACCAGCCGCCGUUGACUGCUCAAGCUCUGAGGAGCGCUGGCGGCUGUGGGCUGUGAGCGGCUCCGAAGGUCACCACCACUUUGUGUUUGUUCCUUGAUAGUAUCCAAAGCAGUCCUGUCCAACAGAGGAUUGAGCAUCA
B20: chr12:48362563:48362564:+_ENSG00000134291_ENST00000256686|hu_hu|hu_hu_hu_mus_False|18_28 (ssRNA)
RNA: GGGAGUUCUACAGUCCGACGAUCUCCGUCAAGCCCUUCGAUAGACCCUUGCGGGGGAAACUGUAAUCACUUUGUAUGGGGAAGGAAAAGAAACGCCAAAAACUUUCUUUCUUUCUUUUCAAAAAGCAGGCGGGAGGGGGAGGUCAACAGAGGAUUGAGCAUCA
B21: chr12:39763582:39763583:-_ENSG00000139116_ENST00000544797|hu_mus|hu_hu_hu_mus_False|8_108 (ssRNA)
RNA: GGGAGUUCUACAGUCCGACGAUCCUCUAAGAAUUGGGCAUUCACUUUGAAUUCAGGAGGGGGCAGCCCGUUUUUAAUCGCUGAGGUCUUUUUCUCAUCAAUACUCUUGAACAGGUGUCUAACAGCACGAGAAAUAAUGCCCUGCAACAGAGGAUUGAGCAUCA
B22: chr20:20006332:20006333:+_ENSG00000173418_ENST00000334982|hu_mus|FALSE|FALSE (ssRNA)
RNA: GGGAGUUCUACAGUCCGACGAUCAGGUGCUUCAGCGACGAUGAAAUACUCUGGCCAGUGCGCAAGGUACUGUAAGUAAAAAGGAAUCCCAUAAGUUUCUGUAAGUGGAUCCAAGUUAAUGUUGUUGAAGCGGAACAGGUCGUCCAACAGAGGAUUGAGCAUCA

These binders were tested against T1, UNK ZnF1-3 (assay: nsRBNS (natural sequence RNA bind-n-seq); RBNS binding buffer (assumed for nsRBNS): 25 mM Tris pH 7.5, 150 mM KCl, 3 mM MgCl2, 0.01% Triton X-100, 500 ug/ml BSA, 20 U/ml SUPERase-In, 4 C; UNK is unkempt and MSI1 is Musashi-1; names of the RNAs are library labels; protein concentration not given here; high values mean tight binding).

Binder	binding signal
B1	1.45 enrichment R
B2	1.09 enrichment R
B3	0.637 enrichment R
B4	0.737 enrichment R
B5	1.35 enrichment R
B6	0.536 enrichment R
B7	1.88 enrichment R
B8	0.346 enrichment R
B9	1.77 enrichment R
B10	1.24 enrichment R
B11	0.926 enrichment R
B12	0.429 enrichment R
B13	1.38 enrichment R
B14	0.627 enrichment R
B15	0.656 enrichment R
B16	2.15 enrichment R
B17	1.18 enrichment R
B18	1.9 enrichment R
B19	1.09 enrichment R
B20	1.58 enrichment R
B21	1.75 enrichment R
B22	1.09 enrichment R
